According to PubChem BioAssay AID504339 (National Center for Advancing Translational Sciences (NCATS), 2011):
Among all 390,000 compounds or so, about 17,000 (4.4%) were called active. The shares of active, inactive and inconclusive entries below differ from those in the screen. Calls follow the shape of the dose curve; as a rule, active = well fitted inhibition curve with a large enough effect; inconclusive = small, poorly fitted or top-dose-only effect; inactive = no such curve, though single readings can be large or run the other way. Potencies beside an inconclusive call are fits to weak or partial responses and may not hold up.

target: Lysine-specific demethylase 4A (Homo sapiens) (UniProt O75164); test: qHTS Assay for Inhibitors of JMJD2A-Tudor Domain; details: AlphaScreen JMJD2A-Tudor / H3K4me3 peptide binding; activity change, negative = inhibition: at 114 µM (top of the series); also: nearly all actives have a fitted effect of over 50% in size
% is scaled to controls: 0 for no effect and ±100 for the full control effect; potency is read from the fitted curve at half-maximal effect; tags tell the direction and shape of the fitted curve.

Chain of UniProt O75164 (O75164 whole entry, looked up, the tested form may be a part): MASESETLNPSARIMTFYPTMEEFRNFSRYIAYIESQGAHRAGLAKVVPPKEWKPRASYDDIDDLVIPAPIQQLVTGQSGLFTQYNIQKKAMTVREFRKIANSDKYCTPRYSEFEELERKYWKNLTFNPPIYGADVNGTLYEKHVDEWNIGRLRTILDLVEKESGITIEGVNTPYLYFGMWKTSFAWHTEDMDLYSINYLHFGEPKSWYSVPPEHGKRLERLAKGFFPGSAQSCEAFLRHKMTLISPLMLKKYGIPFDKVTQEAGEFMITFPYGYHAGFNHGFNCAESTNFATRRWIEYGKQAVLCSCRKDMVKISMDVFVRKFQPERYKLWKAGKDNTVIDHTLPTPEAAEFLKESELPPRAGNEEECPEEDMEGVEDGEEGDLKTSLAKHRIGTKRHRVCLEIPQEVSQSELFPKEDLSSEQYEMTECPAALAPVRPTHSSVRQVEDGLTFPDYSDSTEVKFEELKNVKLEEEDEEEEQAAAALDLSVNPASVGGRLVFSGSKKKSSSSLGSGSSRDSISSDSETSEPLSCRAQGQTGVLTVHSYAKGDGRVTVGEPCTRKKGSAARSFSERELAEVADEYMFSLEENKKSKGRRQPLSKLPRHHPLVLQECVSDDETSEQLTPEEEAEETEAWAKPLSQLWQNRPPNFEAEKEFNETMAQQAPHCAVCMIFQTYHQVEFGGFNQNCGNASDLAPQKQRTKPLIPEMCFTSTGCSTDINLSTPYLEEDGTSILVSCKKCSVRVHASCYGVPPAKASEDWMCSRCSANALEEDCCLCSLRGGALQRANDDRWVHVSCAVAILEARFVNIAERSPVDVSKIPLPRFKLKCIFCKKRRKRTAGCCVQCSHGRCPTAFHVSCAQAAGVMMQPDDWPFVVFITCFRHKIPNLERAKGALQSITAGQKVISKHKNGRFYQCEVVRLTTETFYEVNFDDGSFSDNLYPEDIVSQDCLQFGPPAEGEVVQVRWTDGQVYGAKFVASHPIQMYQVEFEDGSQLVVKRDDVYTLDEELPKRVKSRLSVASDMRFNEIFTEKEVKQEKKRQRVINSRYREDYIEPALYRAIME

SMILES	Potency	activity change, negative = inhibition
COC(=O)c1ccc(N2CCN(S(=O)(=O)c3c(C)cc(C)cc3C)CC2)c([N+](=O)[O-])c1	inconclusive: 12.6 µM [inhibitor, full curve]	–
O=C(CCCN1C(=O)/C(=C/c2ccc(F)cc2)SC1=S)NCCCn1ccnc1	inconclusive: 50.1 µM [inhibitor, partial curve]	–
CCC(c1nnnn1Cc1ccco1)N1CCN(C(=O)c2ccco2)CC1 (centres undefined)	inconclusive: 89.1 µM [inhibitor, single point]	–
CCS(=O)(=O)N1CCc2cc(C(=O)Nc3ccc(C)c(Cl)c3)ccc21	–	inactive: -29.8%
CN(C)c1ccc(-c2n[nH]c(=S)n2-c2ccccc2)cc1	active: 7.94 µM	–
O=C(Nc1nnc(S(=O)(=O)N2CCOCC2)s1)c1cccc(F)c1	inconclusive: 4.47 µM [inhibitor, full curve, poor fit]	–
O=C(N/N=C/c1ccccn1)c1ccccc1	inconclusive: 50.1 µM [inhibitor, partial curve, poor fit]	–
CCC(=O)N1CCc2cc(Br)cc(S(=O)(=O)N3CCCC(C(=O)NCc4cccc(OC)c4)C3)c21 (centres undefined)	–	inactive: -22.9%
CSc1ccccc1NC(=S)N/N=C/c1cccn1Cc1ccc(F)cc1	active: 35.5 µM	–
CC1CN(C2CCN(C(=O)c3ccccc3)CC2)CC(C)O1 (centres undefined)	active: 1.26 µM	–
COc1cccc(C=NNC(=S)NN=Cc2cccc(OC)c2OC)c1OC	inconclusive: 50.1 µM [inhibitor, partial curve]	–
CCc1cc2c(cc3c(=O)n(CC(=O)N4CCC(C)CC4)nc(CC)n32)s1	–	inactive: -13.8%
COc1cccc(CCNC(=O)C2CCC(=O)N(Cc3cccc(OC)c3)C2)c1 (centres undefined)	–	inactive: 2.76%
C(=N\c1nc2ccccc2n1Cc1ccccc1)/c1cccs1	inconclusive: 50.1 µM [inhibitor, partial curve]	–
CC1(C)Oc2ccc3ccc(=O)oc3c2/C(=C/Nc2ccccn2)C1=O	inconclusive: 10 µM [inhibitor, partial curve]	–
O=C(N/N=C/c1cc(Cl)ccc1O)c1ccccc1Br	active: 79.4 µM	–
Cc1cccc(NC(=O)CN2C(=O)S/C(=C\c3ccc(-c4cccc(C(=O)O)c4C)o3)C2=O)c1	active: 79.4 µM	–
N#C/C(C(=O)NCc1ccccc1)=C1\SC(CCO)C(=O)N1c1ccccc1 (centres undefined)	inconclusive: 50.1 µM [inhibitor, partial curve]	–
C=CCn1c(=O)c2ccccc2n2c(SCC(=O)/C(C#N)=C(\C)N)nnc12	inconclusive: 56.2 µM [inhibitor, partial curve, poor fit]	–
CCCCCC[n+]1c(-c2ccc(Cl)cc2Cl)csc1Nc1ccccc1	inconclusive: 44.7 µM [inhibitor, single point]	–
COCc1ccc(CN2CCc3c([nH]c4ccccc34)C2CC(C)C)o1 (centres undefined)	inconclusive: 50.1 µM [inhibitor, partial curve]	–
Cc1ccc(NC(=O)C2C3C=CC4(O3)C2C(=O)N(CCCN2CCOCC2)C4C(=O)NC2CCCCC2)cc1Cl (centres undefined)	–	inactive: -17.1%

SMILES	Potency	activity change, negative = inhibition
CCCCCC[N+](C)(C)CC/C=C1/c2ccccc2Sc2ccc(Cl)cc21	inconclusive: 50.1 µM [inhibitor, partial curve]	–
CCCCC#Cc1ccccc1CC(=O)Nc1ccccc1	inconclusive: 70.8 µM [inhibitor, single point]	–
Cc1ccc(-c2[nH]c3ccccc3c2SCCN)cc1	inconclusive: 56.2 µM [inhibitor, partial curve]	–
NC(=O)N/N=C/c1c(F)c(F)c(F)c(F)c1F	active: 11.2 µM	–
O=C(OCc1cc(=O)n2c(n1)sc1ccccc12)c1cccc(O)c1	active: 35.5 µM	–
COc1ccc(-c2nn(-c3ccccc3C)cc2CNCCc2cnc[nH]2)cc1F	inconclusive: 35.5 µM [inhibitor, single point]	–
COc1cccc(Cn2c(=O)n(-c3cccc(Cl)c3C)c(=O)c3c4c(sc32)CN(C(C)=O)CC4)c1	inconclusive: 56.2 µM [inhibitor, partial curve]	–
CCN(CC)c1ccc(C2C3CCCCC3(O)CCN2C(=O)c2cccs2)cc1 (centres undefined)	inconclusive: 35.5 µM [inhibitor, single point]	–
Cc1nc2ccc(Cl)cc2c(-c2ccccc2F)c1CC(=O)O	inconclusive: 89.1 µM [inhibitor, single point]	–
Clc1ccccc1C1SCC2Nc3ccccc3CN21 (centres undefined)	inconclusive: 79.4 µM [inhibitor, partial curve]	–
COc1ccc(-c2csc(CCN3N=C(C)CC3=O)n2)cc1	inconclusive: 63.1 µM [inhibitor, partial curve, poor fit]	–
COc1cccc(OC)c1OCCNC(C)(C)C	active: 8.91 µM	–
COc1cc(C2c3cc4c(cc3OC(NNC(N)=S)C2C)OCO4)cc(OC)c1OC (centres undefined)	inconclusive: 1.26 µM [inhibitor, full curve, poor fit]	–
COc1ccc(C2c3cccn3CCN2S(=O)(=O)c2ccccc2[N+](=O)[O-])cc1OC (centres undefined)	inconclusive: 31.6 µM [inhibitor, full curve]	–
O=C(NCC(c1ccc2c(c1)OCO2)N1CCOCC1)c1ccccc1F (centres undefined)	–	inactive: -32.3%
CN1Cc2sc(NC(=S)NC(=O)c3ccccc3)c(C#N)c2CC1(C)C	active: 35.5 µM	–
CCOc1cc(/C=C2\NC(=S)N(C)C2=O)ccc1OCc1ccc(C(=O)O)cc1	inconclusive: 89.1 µM [inhibitor, single point]	–
COc1ccc(-c2nnc(SCC#CCO)o2)cc1OC	inconclusive: 39.8 µM [inhibitor, single point]	–
COC(=O)CN1C(=O)S/C(=C/c2cc(C)n(C)c2C)C1=O	inconclusive: 20 µM [inhibitor, full curve]	–
CCOC(=O)C(CC(=O)O)NCc1ccco1 (centres undefined)	active: 17.8 µM	–
CN(CC(=O)N1CCN(c2ccccc2)CC1)C1CCCc2ccccc21 (centres undefined)	inconclusive: 70.8 µM [inhibitor, partial curve, poor fit]	–
CC(C)[C@H](NC(=O)c1ccccc1Cl)C(=O)Nc1nc(-c2ccccn2)cs1	active: 44.7 µM	–
